Experiments:
rat BNP receptor (NPR-A) = biological target: T1, rat BNP receptor (NPR-A) (Rattus norvegicus, UniProt P18910); experiment: Fluorescence-based rat BNP receptor (NPR-A) GCaMP6 reporter cell line; details: tested up to the max. concentration of 460 nM
T1 construct: expressed in transfected cells; host or cells: CHO cell line stably expressing GCaMP6, co-transfected with CNGA2 and rat NPR-A
T1 sequence (P18910 29-1057): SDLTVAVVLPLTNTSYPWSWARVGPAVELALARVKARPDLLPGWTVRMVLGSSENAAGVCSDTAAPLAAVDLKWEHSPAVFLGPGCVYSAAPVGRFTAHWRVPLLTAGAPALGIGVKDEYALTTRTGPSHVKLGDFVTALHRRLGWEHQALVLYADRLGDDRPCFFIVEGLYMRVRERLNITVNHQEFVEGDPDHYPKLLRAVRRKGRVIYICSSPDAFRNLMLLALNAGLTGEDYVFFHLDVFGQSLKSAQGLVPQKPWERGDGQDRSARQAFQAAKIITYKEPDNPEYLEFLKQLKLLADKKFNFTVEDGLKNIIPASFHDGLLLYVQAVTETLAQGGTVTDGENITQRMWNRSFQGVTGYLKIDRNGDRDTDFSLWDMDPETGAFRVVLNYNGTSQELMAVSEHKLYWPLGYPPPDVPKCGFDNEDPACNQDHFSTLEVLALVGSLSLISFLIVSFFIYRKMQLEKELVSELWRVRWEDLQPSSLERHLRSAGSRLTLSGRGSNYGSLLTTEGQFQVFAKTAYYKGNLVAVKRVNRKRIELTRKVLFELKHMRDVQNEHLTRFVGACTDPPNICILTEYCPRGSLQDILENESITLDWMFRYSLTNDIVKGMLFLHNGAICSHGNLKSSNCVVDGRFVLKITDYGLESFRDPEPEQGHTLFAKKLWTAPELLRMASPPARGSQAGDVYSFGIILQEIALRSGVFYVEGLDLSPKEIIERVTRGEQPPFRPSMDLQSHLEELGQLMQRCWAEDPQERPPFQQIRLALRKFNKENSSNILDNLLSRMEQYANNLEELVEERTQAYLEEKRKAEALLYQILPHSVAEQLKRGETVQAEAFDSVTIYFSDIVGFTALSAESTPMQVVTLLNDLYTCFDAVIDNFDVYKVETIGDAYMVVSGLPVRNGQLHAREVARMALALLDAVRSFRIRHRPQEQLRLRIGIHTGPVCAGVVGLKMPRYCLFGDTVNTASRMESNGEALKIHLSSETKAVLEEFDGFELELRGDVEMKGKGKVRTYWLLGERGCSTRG
Description: Activity data of BNP engrafted antibodies in NPR-A receptor cell line A luminescence-based rat BNP receptor (NPR-A) cell line was generated as described previously (Wunder et al. (2013), Eur J Pharmacol. 698: 131). Accordingly, a fluorescence-based rat BNP receptor (NPR-A) cell line was generated by co-transfecting a CHO cell line, stably expressing the fluorescent calcium sensor protein GCaMP6, with plasmid constructs encoding CNGA2 (cGMP biosensor) and rat NPR-A.
BNP receptor GCaMP6 cells were cultured for one day on black, clear-bottom 384-well microtiter plates (2500 cells/well). After removal of the cell culture medium reporter cells were loaded for 20 min with Tyrode (130 mM NaCl, 5 mM KCl, 2 mM CaCl2, 20 mM HEPES, 1 mM MgCl2, 4.8 mM NaHCO3 at pH 7.4) containing a black masking dye at 37° C. and 5% CO2. IBMX (0.2 mM) was used to prevent cGMP degradation by endogenous phosphodiesterases.
(§1) Fluorescence measurements (3 min, kinetic mode) were directly started upon agonist addition. Receptor ligands were added in Tyrode containing a black masking dye and 0.1% BSA. Measurements were done on a FLIPR Tetra®.

rat ANP receptor (NPR-A) = biological target: T2, rat ANP receptor (NPR-A) (Rattus norvegicus, UniProt P18910); experiment: Fluorescence-based rat ANP receptor (NPR-A) GCaMP6 reporter cell line; details: tested up to the max. concentration of 460 nM
T2 construct: expressed in transfected cells; host or cells: CHO cell line stably expressing GCaMP6, co-transfected with CNGA2 and rat NPR-A
T2 sequence (P18910 29-1057): T1 sequence (P18910 29-1057)
Method: as §1, with “IBMX (0.2 mM) was used to prevent cGMP degradation by endogenous phosphodiesterases. Fluorescence” for “Fluorescence”

- stimulation of the NPR-A cell line (rat BNP receptor (NPR-A)): did not significantly stimulate
- stimulation of the NPR-A cell line (rat ANP receptor (NPR-A)): did not significantly stimulate
B1: TPP-5657: “empty” antibody without natriuretic peptide, SEQ ID NO 65 and SEQ ID NO 66; negative control (antibody, listed as Homo sapiens)
heavy: [letters of about 100 residues left out]LTGAEYFQHWGQGTLVTVSS[letters of human IgG1 constant region left out]
light: QSVLTQPPSVSGAPGQRVTISCTGSSSNIGAGYDVHWYQQLPGTAPKLLIYGNSNRPSGVPDRFSGSKSGTSASLAITGLQAEDEADYYCQSYDSSLSGVVFGGGTKLTVLGQPKAAPSVTLFPPSSEELQANKATLVCLISDFYPGAVTVAWKADSSPVKAGVETTTPSKQSNNKYAASSYLSLTPEQWKSHRSYSCQVTHEGSTVEKTVAPTECS

— patent publication US20250236654A1, “C-TYPE NATRIURETIC PEPTIDE ENGRAFTED ANTIBODIES” (Bayer Aktiengesellschaft, priority 2018, published 2025)
